In all, about 310,000 compounds went through this assay and about 2,200 (0.71%) showed an effect of 50% or more. Effects have a minus sign here. The list shows a part of the results.
These compounds were tested against human ether-à-go-go-related gene (hERG) potassium channel (human, UniProt Q12809) (assay: primary screen, population patch clamp on CHO cells stably expressing hERG).
Sequence of human ether-à-go-go-related gene (hERG) potassium channel (Q12809 whole entry, looked up): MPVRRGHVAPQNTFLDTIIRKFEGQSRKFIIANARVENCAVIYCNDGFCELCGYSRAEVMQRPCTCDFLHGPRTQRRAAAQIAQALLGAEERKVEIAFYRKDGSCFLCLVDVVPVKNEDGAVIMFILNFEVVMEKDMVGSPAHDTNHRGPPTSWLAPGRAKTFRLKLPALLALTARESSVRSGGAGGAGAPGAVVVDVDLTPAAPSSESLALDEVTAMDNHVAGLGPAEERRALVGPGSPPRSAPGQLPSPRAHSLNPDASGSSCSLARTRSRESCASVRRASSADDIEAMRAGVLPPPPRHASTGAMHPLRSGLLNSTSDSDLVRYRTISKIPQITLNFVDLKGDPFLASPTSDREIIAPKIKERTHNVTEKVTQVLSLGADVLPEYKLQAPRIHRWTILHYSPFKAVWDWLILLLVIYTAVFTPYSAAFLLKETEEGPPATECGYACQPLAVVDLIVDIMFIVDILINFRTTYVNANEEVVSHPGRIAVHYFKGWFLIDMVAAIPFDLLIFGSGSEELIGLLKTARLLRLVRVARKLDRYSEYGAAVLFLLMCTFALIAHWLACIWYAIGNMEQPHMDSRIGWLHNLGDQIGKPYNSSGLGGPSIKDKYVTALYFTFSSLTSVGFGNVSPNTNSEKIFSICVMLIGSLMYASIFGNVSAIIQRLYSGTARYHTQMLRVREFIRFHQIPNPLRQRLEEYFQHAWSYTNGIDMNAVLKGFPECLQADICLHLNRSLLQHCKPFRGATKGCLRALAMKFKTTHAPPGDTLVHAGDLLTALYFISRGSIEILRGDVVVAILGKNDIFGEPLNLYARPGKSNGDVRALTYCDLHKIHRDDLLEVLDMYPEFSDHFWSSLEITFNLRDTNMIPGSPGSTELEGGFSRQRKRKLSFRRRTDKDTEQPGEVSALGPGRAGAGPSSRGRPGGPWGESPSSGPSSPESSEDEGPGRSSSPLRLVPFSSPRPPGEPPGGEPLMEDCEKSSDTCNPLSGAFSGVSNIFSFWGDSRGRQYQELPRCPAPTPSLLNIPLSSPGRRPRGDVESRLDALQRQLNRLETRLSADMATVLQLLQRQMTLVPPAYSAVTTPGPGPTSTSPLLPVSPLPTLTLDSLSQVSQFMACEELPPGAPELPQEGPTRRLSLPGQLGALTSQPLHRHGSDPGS
In the case of `Cc1cc(NC(=O)CS(=O)(=O)c2ccc(Cl)cc2)no1`, the “hERG current change (%, negative = inhibition) at 1uM” value is reported as 18%. In the case of `Cl.OC(CNC1CCCC1)COc1c(F)cc(Br)cc1F` (stereo not drawn), the “hERG current change (%, negative = inhibition) at 1uM” value is reported as -2.28%. `NC(=O)c1cccc(S(=O)(=O)N2CCCCC2)c1` was tested, and the “hERG current change (%, negative = inhibition) at 1uM” value was -0.91%. In the case of `COc1ccc(NC(=O)c2ccco2)cc1NC(=O)c1ccc(C#N)cc1F`, the “hERG current change (%, negative = inhibition) at 1uM” value is reported as 7.28%. For `CCOCCn1c(CN2CCC(Cc3ccccc3)CC2)nc2c1c(=O)n(C)c(=O)n2C`, the “hERG current change (%, negative = inhibition) at 1uM” value was -3.55%. `COc1ccccc1N(CC(=O)NCc1ccco1)S(C)(=O)=O` was tested, and the “hERG current change (%, negative = inhibition) at 1uM” value was 15.2%. In the case of `COc1nc(N(C)S(=O)(=O)c2ccc(C)cc2)nc(C)c1Cl`, the “hERG current change (%, negative = inhibition) at 1uM” value is reported as 15.1%. With `Cc1cc(C(=O)CN2C(=O)NC3(CCCc4sccc43)C2=O)c(C)n1-c1ccc(Cl)cc1` (stereo not drawn) the “hERG current change (%, negative = inhibition) at 1uM” value was 9.98%. With `CCOc1ccc(N2CC(C(=O)NC3CCCCCC3)CC2=O)cc1` (stereo not drawn) the “hERG current change (%, negative = inhibition) at 1uM” value was 8.85%. `OC[C@H]1O[C@@H](n2cnc3cc(Cl)c(Cl)cc32)[C@H](O)[C@@H]1O` was tested, and the “hERG current change (%, negative = inhibition) at 1uM” value was 7.63%. In the case of `CC(=O)c1nccs1`, the “hERG current change (%, negative = inhibition) at 1uM” value is reported as 9.85%. In the case of `Cc1ccc(CN=c2c([N+](=O)[O-])nn(-c3cccc(Cl)c3)n2O)cc1`, the “hERG current change (%, negative = inhibition) at 1uM” value is reported as 14%. In the case of `O=C(CSc1nc2ncc(Cl)cc2[nH]1)c1ccc2c(c1)OCO2`, the “hERG current change (%, negative = inhibition) at 1uM” value is reported as 7.35%. For `COc1cccc(OC)c1C(=O)Nc1ccccc1Sc1ccccc1`, the “hERG current change (%, negative = inhibition) at 1uM” value was -4.2%. In the case of `O=C(Nc1ccccc1O)c1ccc(NS(=O)(=O)c2cccc3cccnc23)cc1`, the “hERG current change (%, negative = inhibition) at 1uM” value is reported as 6.45%. `Nc1ccn(CC(=O)NCc2ccccc2)c(=O)n1` was tested, and the “hERG current change (%, negative = inhibition) at 1uM” value was 9.63%. For `CCc1ccc(N2CC(C)Cn3c2nc2c3c(=O)n(CCN3CCOCC3)c(=O)n2C)cc1` (stereo not drawn), the “hERG current change (%, negative = inhibition) at 1uM” value was -1.2%. For `COC(=O)c1ccc(COc2ccc(/C=C/C(=O)c3ccc(OC)c(CSCC(=O)O)c3)cc2OC)cc1`, the “hERG current change (%, negative = inhibition) at 1uM” value was 17.2%. `CCOC(=O)c1sc(N2C(=O)C(O)=C(C(=O)c3ccco3)C2c2cccc([N+](=O)[O-])c2)nc1C` (stereo not drawn) was tested, and the “hERG current change (%, negative = inhibition) at 1uM” value was 3%. With `O=C1CSC(c2ccccc2)N1Nc1nc(N2CCOCC2)nc(N2CCOCC2)n1` (stereo not drawn) the “hERG current change (%, negative = inhibition) at 1uM” value was 14.9%. In the case of `O=C(COC(=O)c1ccco1)c1ccccc1`, the “hERG current change (%, negative = inhibition) at 1uM” value is reported as 16.7%. With `CCCCOC(=O)c1cc(-c2ccc(/C=N/n3cnnc3)o2)ccc1Cl` the “hERG current change (%, negative = inhibition) at 1uM” value was 12.7%. In the case of `Cc1[nH]nc(SCC(=O)NC2CCCC2)c1[N+](=O)[O-]`, the “hERG current change (%, negative = inhibition) at 1uM” value is reported as 3.27%. `Cc1ccc(/C=N/NC(=O)CSc2nnc(-c3ccc(Cl)cc3)n2-c2ccccc2)o1` was tested, and the “hERG current change (%, negative = inhibition) at 1uM” value was 2.41%. For `COc1ccc(-c2nn(-c3ccccc3)cc2/C=C/C(=O)NCCCn2ccnc2)cc1OC`, the “hERG current change (%, negative = inhibition) at 1uM” value was 10.6%. With `CN1CCC(N(C)S(=O)(=O)c2ccc(NC(=O)COc3cccc(C(F)(F)F)c3)cc2)CC1` the “hERG current change (%, negative = inhibition) at 1uM” value was 0.205%. With `O=C(N[C@H](Cc1ccc(Cl)cc1)C(=O)O)OCC1c2ccccc2-c2ccccc21` the “hERG current change (%, negative = inhibition) at 1uM” value was 8.98%. In the case of `Cc1ccccc1NC(=O)C1CCCN1S(=O)(=O)c1ccccc1C(F)(F)F` (stereo not drawn), the “hERG current change (%, negative = inhibition) at 1uM” value is reported as 5.87%. In the case of `COc1ccc(C(=O)NC2CC2)cc1OC1CCN(Cc2ccc(SC)cc2)CC1`, the “hERG current change (%, negative = inhibition) at 1uM” value is reported as -96.9%. `Cc1ccc(Cn2cccc2C2=NC(C)CO2)cc1` (stereo not drawn) was tested, and the “hERG current change (%, negative = inhibition) at 1uM” value was -10.2%. With `CC(C)(CNC(=O)CNC(=O)c1ccccc1F)N1CCOCC1` the “hERG current change (%, negative = inhibition) at 1uM” value was 17.5%. `N=C(CC1CC(=O)NC(=O)C1)C1=C(O)CCCC1=O` was tested, and the “hERG current change (%, negative = inhibition) at 1uM” value was 8.21%. `CC(=O)Nc1ccc(NC(=O)CSc2ccc(-c3cccnc3)nn2)cc1` was tested, and the “hERG current change (%, negative = inhibition) at 1uM” value was 18.9%. For `Cc1cnc(C(=O)OCC(=O)Nc2ccc(Cl)cn2)cn1`, the “hERG current change (%, negative = inhibition) at 1uM” value was 5.11%. With `O=C(CC1SC(N2CCOCC2)=NC1=O)Nc1cc([N+](=O)[O-])ccc1Cl` (stereo not drawn) the “hERG current change (%, negative = inhibition) at 1uM” value was -2.41%. In the case of `CCCCN=C1NC(=O)C(CC(=O)Nc2ccc(Cl)cc2)S1` (stereo not drawn), the “hERG current change (%, negative = inhibition) at 1uM” value is reported as 9.18%. For `CC1(C)CC(=O)C(C=NCCN2CCN(C3CC(=O)N(c4ccc(F)cc4)C3=O)CC2)=C(O)C1` (stereo not drawn), the “hERG current change (%, negative = inhibition) at 1uM” value was 10.6%. In the case of `O=C(NCc1cccnc1)c1ccccc1NS(=O)(=O)c1ccc(F)cc1`, the “hERG current change (%, negative = inhibition) at 1uM” value is reported as 9.83%. In the case of `COc1ccc(CCNC(=O)CN(c2ccccc2OC)S(=O)(=O)c2ccc(C)cc2)cc1`, the “hERG current change (%, negative = inhibition) at 1uM” value is reported as 14.4%. In the case of `CCN(CC)c1ccc(CC(=O)NC(C)Cc2ccccc2)cc1` (stereo not drawn), the “hERG current change (%, negative = inhibition) at 1uM” value is reported as 10.9%. `CCOc1ccc(NS(=O)(=O)c2ccc3c(c2)oc(=O)n3C)cc1` was tested, and the “hERG current change (%, negative = inhibition) at 1uM” value was 20%. For `CC(=O)N1c2c(cc(Br)cc2S(=O)(=O)N2CCCCC2)CC1C` (stereo not drawn), the “hERG current change (%, negative = inhibition) at 1uM” value was 3.68%.

Source: article PMC4336329 (PLoS ONE, 2015)
